Test results published in publication PMC12648101, “Targeting SARS-CoV-2 main protease for the discovery of a broad-spectrum COVID-19 inhibitor by intensive multi-tiered validation” (Acta Pharmaceutica Sinica. B, 2025).

Experiments:
[1] = biological target: T1, SARS-CoV-2 M^pro (Severe acute respiratory syndrome coronavirus 2, UniProt P0DTD1); experiment: Thermal shift assay (TSA, nano-DSF); format: binding; details: M^pro 10 μmol/L, CHLA 500 μmol/L; M^pro alone 57.6 °C
[2] = biological target: T1, SARS-CoV-2 M^pro; experiment: SPR assay (Biacore T200, steady state affinity); format: binding; details: steady state affinity model, 25 °C
[3] = biological target: T1, SARS-CoV-2 M^pro; experiment: Spectral shift (SpS) measurements; format: binding; details: M^pro 100 nmol/L, Hill coefficient set to 1
[4] = biological target: T1, SARS-CoV-2 M^pro; experiment: Dynamic light scattering (DLS) aggregation assay; details: M^pro 10 μmol/L, CHLA 500 μmol/L
[5] = biological target: T1, SARS-CoV-2 M^pro; experiment: biochemical

## O=C(O)C[C@@H]1C(=O)O[C@H]2[C@@H]3OC(=O)c4cc(O)c(O)c(O)c4-c4c(cc(O)c(O)c4O)C(=O)OC[C@H]2O[C@@H](OC(=O)c2cc(O)c(O)c(O)c2)[C@@H]3OC(=O)c2cc(O)c(O)c3c2[C@H]1[C@H](O)C(=O)O3 [CHLA, chebulagic acid]
[1]
  melting point of SARS-CoV-2 M^pro in the M^pro–CHLA complex: 80.0 °C
[2]
  Kd: 0.0238 µM
[3]
  Kd: 0.0248 µM
[4]; M^pro alone 0.48
  polydispersity index (PDI) of M^pro upon CHLA addition: 1.14
[4]; M^pro alone 3.8 nm
  cumulant radius of M^pro–CHLA complex: 25.85 nm
[5]
  IC50: 2 ± 0.16 µM
